Results taken from the supplement of paper PMC11417369.
The list shows a part of the results.

System: PfAP2-HC AP2 domain (GST-tagged)
Assay: gcPBM binding intensity (ln(normalized median fluorescence intensity)); higher = stronger DNA binding
In short: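 For binding intensity, the highest Masliner-normalised natural-log median intensity across replicate spots of either probe orientation was taken. Protein bound to the array was stained with Alexa488 anti-GST antibody and scanned at 488 nm. The protein, GST-tagged P. falciparum DNA-binding domains from E. coli at about 25 μg on average, had been applied for 1 h to an Agilent 4 × 180k array of primer-extended double-stranded 36-bp intergenic genomic probes and negative controls.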

Sequence | gcPBM binding intensity (ln)
AAAATGAATATAATGACGCACACTTAAAATTGTTAA [CACACA_site2509] | 9.78
TTTTTTAGAAAAAGTTGTACTTTTTTTTTTTTTTTT [XGTACX_site535] | 9.27
ATATATATAATATAGGTGCACTACTTATTTAAAAAA | 9.75
TAAAAATGTAGACACACACACATATATATATTTAAT [CACACA_site1528] | 10.7
AAATAATTAGCTATTTGTACATATATACATATTTAT [XGTACX_site4652] | 9.84
TTAATAACAAAATAAACACACATATATAAATCCACA [CACACA_site1590] | 10.1
ACTACCTATATTTAAGCATGCAAAAAATAAAAATAT [TGCATGCA_site238] | 9.67
AATATTATTATTATTACACACACAATTATATTTACC [CACACA_site8061] | 10.2
ATATTTTAAATGTTATGTACACATTTGTTGTTTACA [XGTACX_site7353] | 9.69
ATTTTTTTTTTTATTTTCTTTGAGATTATCTTAATT [CACACA_negctrl_site1209] | 9.54
TTAATTTGTTCTTACACACACATATATATATATTTA [CACACA_site1185] | 10.1
TATATATATACATAATGTACATTTTATAAATTTACA [XGTACX_site5283] | 9.61
AAAAAAAAAAAAAAAATACACACGTGAATGTATTGT [CACACA_site1320] | 9.86
AAATAACACATATATACACACATATAAATATAATAT [CACACA_site2692] | 10.3
ATAGGACCTATGTGCCCATGGGTACATTAAAAAAAA [CACACA_negctrl_site1465] | 9.47
AAAAAACTTATAATCACACATATGATTAAATATTAA [CACACA_site4956] | 9.66
TTGAATGTAGTTAAATGTACATGTAATATATAAAAA [XGTACX_site1250] | 9.73
AATTATTTTTTGTATGAACACACAACTTAATTATGA [CACACA_site8774] | 9.78
TTTGTTTTAAATCGAAGTACACATAATTATATTTTA [XGTACX_site1541] | 9.46
ATACAACATATATATACACACATATAATAATAATAA [CACACA_site3367] | 10.3
AAACCAATAAAAAACTGTACAAAAATTATATGAGAT [XGTACX_site1269] | 10.1
GAATAAAAAATATATGTGCACATATAAACTTAAAAT [GTGCAC_site9554] | 10.1

Sequence | gcPBM binding intensity (ln)
TAATATAAAGGAAAAGAAAAGAAAAGAATATACAAT [CACACA_negctrl_site1369] | 9.69
AATAAATTATTTATTGCATGTAATATGAATATTTTT [TGCATGCA_site798] | 9.51
TAATGTATGAAATAAACACACAAGTAAGTACATAAA [CACACA_site2451] | 9.95
ATATATTTTATTCCTATATATATATATATATATATA [GTGCAC_negctrl_site556] | 9.7
CATTATGTCATAAATGCACACATATACATTGTTTTG [CACACA_site8118] | 9.95
AGAAAAAAAATATACACACATACGATCATACATATG [CACACA_site2171] | 9.99
TACATAGAGTTTGTTTGTACTCATATGCGTAAATTC [XGTACX_site4810] | 9.55
ACCTCTTTGAAATATACACACTAAACATATCAACTT [CACACA_site5372] | 9.97
TCTGTAGTTTTTTACAGTACTTTTAGGTAATACATA [XGTACX_site7417] | 9.53
AAAACACCCAAACACACACACACATATATATATATA [CACACA_site9119] | 10.8
TTCTTGTATTTTCATAGTACATATAATGTCGTGTTA [XGTACX_site7714] | 9.8
TTTCTTTTTTTTTTTTTTTCTGGCTTTTTCTCTTTT [TGCATGCA_negctrl_site599] | 9.57
TTTTTATTTTTTTTATGTACACAAATGATATACATA [XGTACX_site5910] | 9.64
AGGATACACGGACACACACACATATAGATTTATATA [CACACA_site6552] | 10.6
ATTATTTTTCTATGTGTGCACGTGTGGAATGTGTCT [GTGCAC_site9507] | 10
TTCTGAACAAAATTATATATTTATTTTTATTTTCAT [CACACA_negctrl_site422] | 9.7
TATATTACTTAAAATACACACCATGGAAAAGTTTTA [CACACA_site5443] | 9.69
ATTACATGTTACTTAACACACATCTGGTGAAATAAT [CACACA_site171] | 9.74
TTAATTAAAATTTATACATGCATAAAAGAAATACAC [TGCATGCA_site537] | 9.75
ATTTTTTTCTTTTCTTTTTTCTTTTTTTTTTTTGGT [CACACA_negctrl_site1146] | 9.59
GTAATGAAACATTGCACACATATAATAATATAATAT [CACACA_site1422] | 9.84
ATAAGATGATGGAACTGTAATATATATATATATATA [CACACA_negctrl_site839] | 9.61

Sequence | gcPBM binding intensity (ln)
TTTAAGAGTTGCACACGTACAAAAAAAAAAAAAAAA [XGTACX_site7406] | 9.47
TTGTATACATAAAATGGTACAGAATATATAATTCTA [XGTACX_site7236] | 9.45
GTATACCAACATATTATACACACCTTTATATTTTTT [CACACA_site2153] | 10
TGCAACAAAATAAACACACACACACCCCCACAAAAA [CACACA_site3388] | 10.6
AATAAAAAAATAAAATGTACATACAAATAAATAAAT [XGTACX_site5153] | 9.9
TATTTTAATGAAGCATTTAAGGGAAAAAAAAAAAAA [TGCATGCA_negctrl_site606] | 9.25
TTATACTGTTTCAGAAAAATAAAGAATGAAAGTATT [XGTACX_negctrl_site230] | 9.55
TTTTTATATTCCCCCAGTACATATATAATAGTAGTA [XGTACX_site7927] | 9.65
AAGTAATACAACACGCACATATATATATATATATAT [GTGCAC_negctrl_site89] | 10
TTATAGCCTGTGAAGAGTACATTTTTATTTTTTATT [XGTACX_site4105] | 9.59
TACCTAAATAAATGGACACACACATATATATATATA [CACACA_site8407] | 10.1
TATTTTTAAATATAAAGTACTTATATTAACTACGAA [XGTACX_site1524] | 9.31
ATTTTTTCTGTCTTAATTGGACCCACTGCAAATGGG [CACACA_negctrl_site1158] | 9.14
ATAATACAAAAAAAAAAAAAAAATAAAATAATAAAA [GTGCAC_negctrl_site722] | 9.53
ATATATATGCATATATGTACTTAAAATATAAAGGCA [XGTACX_site3256] | 9.63
TTCATATATTTTAAAGCATGCATTCATCTTATAGTT [TGCATGCA_site800] | 9.71
TTTACGCTATAGGAGAGTACTTATAAAATCCTGTGT [XGTACX_site2364] | 9.62
TACAAAATATATATGACACACACAAAAAAAGTATAT [CACACA_site8455] | 10.4
TATTTTTCCATTGGGGGTACATGTGTTATATTTATT [XGTACX_site5914] | 9.94
AGACGAAAATAATAAAGTACTAAAAAAAAAAAAAAA [XGTACX_site927] | 9.23
TTTCCCAAGCTTATTACACACAAGTAGAATAAGCTT [CACACA_site1561] | 9.61
TATATAGGTAAAAAATGTACTTATATTGAATATATT [XGTACX_site4414] | 9.61

Sequence | gcPBM binding intensity (ln)
TTTACAATATTAAAATGTACATATAAAATAAATAAA [XGTACX_site8367] | 9.62
GATATCAAATATAAATGTACAAATTATATATACATA [XGTACX_site3228] | 9.63
TTCTTATTTATTTTCTTCTCCTTCCTCAAATTTTTT [GTGCAC_negctrl_site592] | 9.59
AATTTGTTAATATTTTGTACACATAATATAAAAACA [XGTACX_site2224] | 9.55
GAGAAAGATATATACACACACATAAATATGTACATA [CACACA_site6975] | 10.5
ATACAATAAAATAAGTTTGAATAAAATTAAATATAT [CACACA_negctrl_site877] | 9.66
TCCTTTTTTAAAAGTTGTACATTATTGTTATTTGTT [XGTACX_site4686] | 9.73
TTCCTCTTAATATGTGCACACTAAATTATAACCTAA [CACACA_site5751] | 9.84
GAAGGAAATAATAGTAGTACAAATGGTAAGAAATAT [XGTACX_site5845] | 10.2
TTTACAATATAAAATACACACACACTAACATATATT [CACACA_site9231] | 10.3
TATATAAATGTTATCACACACTCACGTTTGACAAAA [CACACA_site6468] | 9.71
ATTATATTTATGTTGGTGCATTATACATGAAATTTA | 9.56
AATATAATACAATATTGTACATAATATAAATTAAAA [XGTACX_site4064] | 9.93
TTCATTTTAATTTCCAGTACACATATATATACATAT [XGTACX_site558] | 9.85
ATGTCATAAATGTACGCACACATACATAAACATATA [CACACA_site4530] | 10.1
ATTTATTTCTATAATACACACAAATATCTTAATTAA [CACACA_site7801] | 9.58
GGTAATTATTTTGGTTGTACTCAAATATATAATATT [XGTACX_site291] | 9.63
TATATGTTATATTGGACACACACAATAAACATTATG [CACACA_site8480] | 10
AAACATAAAGAAAAAAAAAATATATATTTATTTATT [GTGCAC_negctrl_site357] | 9.54
ATATATTAACAAAAGGTGCTTTTGGCAAAGTATAAT | 9.85
TTATTTAAATATTGATGTACTCTCCTTATTATAATA [XGTACX_site1240] | 9.61
ATAAAAATGGTGTTAACACACACATATATATATATA [CACACA_site8089] | 9.83
